The text below walks through data of the RNAGym collection of RNA variant scans (doi:10.1093/nar/gkz1192).

The source gives no read counts; variants with many changes may rest on few reads.

B1: CPEB3 Ribozyme (parent)
chain: UAACAGGGGGCCACAGCAGAAGCGUUCACGUCGCAGCCCCUGUCAGAUUCUGGUGAAUCUGCGAAUUCUGCUGUAUAUCUC

This data set covers variants of B1. The data set is described as follows: self-cleavage, relative activity (ratio to wild type); higher = more cleavage; in vitro, sequencing. The essentials: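 Libraries of CPEB3 self-cleaving ribozyme mutants came from rounds of error-prone PCR and carried barcodes, which DNA sequencing matched to variants. In vitro transcription used T7 RNA polymerase at 37°C for 5 hours, with a further 15 min in DNase I before EDTA stopped the reaction; the ribozymes cleaved during both steps. The RNA was reverse transcribed with template switching and sequenced on Illumina. Relative activity is the cleaved/total read fraction of a variant divided by that of the unmutated ribozyme, averaged over three batches with at least 5 reads.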
For AAACAGGGGGCCACAGCAGAAGCGUUCACGUCGCAGCCCCUGUCAGAUUCUGGUGGAUCUGCGAAUUCUGCCGUAUAUCUC [U1A A56G U72C], the self-cleavage was 0.83.

Turning to AAACAGGGGGCCACAGCAGAAGCGUUCACGUCGCAGCCCCUGUCAGAUUCUGGUGGAUCUGCGAAUUCUGCUGAGUAUCUC [U1A A56G U74A A75G], the self-cleavage amounted to 1.05.

On to AAACAGGGGGCCACAGCAGAAGCGUUCUCGUCGCAGCCCCUGUCAGAUUCUGGUGAAUCAGCGAAUUCUGCUGUAUAUCUC [U1A A28U U60A], for which the self-cleavage amounted to 0.2.

For the variant AAACAGGGGGCCACAGCAGAAGCGUUCACGUCGCAGCCCCUGUCGGAUUCUGGUGAAGCUGCGAAUUCUGCCGUAUAUCUC [U1A A45G U58G U72C], the self-cleavage is 0.18.

As for AAACAGGGGGGCACAUCAGAAGCGUUCACGUCGCAGCCCCUGUCAGGCACUGGUGAAUCUGCGAAUUCUGCAGUAUAUCUC [U1A C11G G16U A47G U48C U49A U72A], the self-cleavage amounted to 0.04.

In the case of AAACAGGGGGCCACAGCAGUAGCGUUCACGUCGCAGCCCCUGUCAGAUUCUGGUGAAUCUGCGAAUACCGCAGUAUAUCUC [U1A A20U U67A U69C U72A], the self-cleavage stood at 0.26.

Consider AAACAGGGGGCCACAGCAGAAGCGUUCACGUCGCAGCCCCUGUCAGGUUCUGGUGAAUCCGCGAAUUCUGCUGUAUAUCUC [U1A A47G U60C], for which the self-cleavage came to 0.14.

Consider AAACAGGGGGCCACAGCAGAAGCGUUCACGUCGCUGCCCCUGUCAGAUUCUGGUGAAUCUGCGAAUUCUGCUGUAUUUCUC [U1A A35U A77U], for which the self-cleavage stood at 0.41.

As for AAACAGGGGGCCACAGCAGAAGCGUUCACGUCGCUGCCCCUGUCAGAUUCUGGUGAAUCUGCGAAUUCUGCUGUAUGUCUC [U1A A35U A77G], the self-cleavage came out at 0.38.

Take AAACAGGGGGGCACAGCAGAAGCGUUCACGUCGCAGUCCCUGUCAGAUUCUGGUGAAUCUGCGAAUUCUGCAGUAUAUCUC [U1A C11G C37U U72A]: the self-cleavage was 0.12.

In the case of AAAAAGGGGGCCACAGCAGAAGCGUUCACGUCGCGGCCCCUGUCAGAUUCUGGUGAAUCUGCGGAUUCUGCCGUAUAUCUC [U1A C4A A35G A64G U72C], the self-cleavage stood at 1.26.

On to AAACAGGGGGCCACAGCAGUAGCGUUCACGACGCAGCCCCUGUCAGAUUCUGGUGAAUCUGCGAAUUCUGCUGUAUAUCUC [U1A A20U U31A], for which the self-cleavage turned out to be 0.35.

Regarding AAACAGGGGGCCACAGCAGAAGCGUUCACGUCGCGGCCCCUGUCGGGUUCUCGUGAAUCUGCGAAUCCUGCUGUAUAUCUC [U1A A35G A45G A47G G52C U67C], the self-cleavage turned out to be 0.68.

Consider AAACAGGGGGCCACAGCAGAAGCGUUCACGUCGCUGCCCCUGUCAGAUUCUGGUGAAUCUGCGAAUUCUGCGGUAUAUCUC [U1A A35U U72G], for which the self-cleavage was determined as 0.41.

With AAACAGGGGGCCACAGCAGAAGCGUUCACGUCGCAGCCCCUGUCGGAUUCUGGUGAAUCUGCGAGUUCUGCUGUAUAUCUC [U1A A45G A65G], the self-cleavage was found to be 0.3.

In the case of AAACAGGGGGCCACAGCAGAAGCGUUCACGUCGCAGCCCCUGUCGGAUUCUGGUGAAUCUGCGAUUUCUGCUGUAUAUCUC [U1A A45G A65U], the self-cleavage came out at 0.29.

As to AAACAGGGGGCCACAGCAGAAGCGUUCACGUCGCAGCCCCUGUCAGAUUCUGGUGGACCUGCGAAUUCUGCUGUAUAUCUC [U1A A56G U58C], the self-cleavage amounted to 0.32.

Take AAACAGGGGGCCACAGCAGUAGCGUUCACGUCGCAGCCCCUGUCAGAUUCUGGUGAAUCUGCGAAUUCUGCAGUAUAUCUC [U1A A20U U72A]: the self-cleavage is 0.18.

In the case of AAACAGGGGGCCACAGCAGAAGCGUUCACGUCGCAGCCCCUGUCAGAUUCUGGUGGAUCUGCGGAUACUGCUGGAUAUCUC [U1A A56G A64G U67A U74G], the self-cleavage was 0.35.

Take AAACAGGGGGCCACAGCAGAAGCGUUCACGUCGCAGCCCCUGUCAGAUUCUGGUGAGUCUGCGAAUUCUGCUGUAAUUCUC [U1A A57G U76A A77U]: the self-cleavage worked out at 0.74.

On to AAACAGGGGGCCACAGCAGAAGCGUUCACGUCGCAGCCCCUGUCUGAUUCUGGUGAACCCGCGAAUUCUGCUGUAUAUCUC [U1A A45U U58C U60C], for which the self-cleavage came out at 0.17.

Regarding AAAUAGGGGGCCACAGCAAAAGCGUUCACCUCGCAGCCCCUGUCAGAUUCUGGUGAAUCCGCGAAUUCUGCUGAAUAUCUC [U1A C4U G19A G30C U60C U74A], the self-cleavage stood at 0.49.

On to AAACAGGGGGCCACAGCAGAAGCGUUCACGUCGCAGCCCCUGUCAGGUUCUGGUGAAUCCGCGAAUUCUGCCGUAUAUCUC [U1A A47G U60C U72C], for which the self-cleavage amounted to 0.15.

AAACAGGGGGCCACAGCAGAAGCGUUCCCGUCGCAGCCCCUGUCAGAUUCUGGUGAAUCUGCGAAUUCUGCUGUAUAUCUA [U1A A28C C81A]: the self-cleavage was 0.65.

On to AAACAGGGGGGCACAGCAGAAGCGUUCACGUCGCAGCCCCUGUCAGAUUCUGGUGAAUCUGCAAAUUCUGCUGUAUGUCUC [U1A C11G G63A A77G], for which the self-cleavage was 0.2.

Regarding AAACAGGGGGCCACAGCAGAAGCGUUCACGUCGCAGCCCCUGUCAGAUUCUGGUGAAUCUGCGGAUUCCCCUGUAUAUCUC [U1A A64G U69C G70C], the self-cleavage was found to be 0.32.

Take AAACAGGGGGCCACAGCAGUAGCGUUCACGUCGCCGCCCCUGUCAGAUUCUGGUGAAUCUGCGAAUUCUGCUGUCUAUCUA [U1A A20U A35C A75C C81A]: the self-cleavage was 0.38.

With AAACAGGGGGCCACAGCAGUAGCGUUCACGUCGCAGCCCCCGUCAGAUUCUGGUGGUCCAGCGAAUUCUGCUGUAUAUCUC [U1A A20U U41C A56G A57U U58C U60A], the self-cleavage was determined as 0.11.

Consider AAACAGGGGGCCACAGCAGUAGCGUUCACGUCGCAGCCCCUGUCAGAUUCUGGUGAAUCCGCGAAUUCUGCUGUACUUCUC [U1A A20U U60C U76C A77U], for which the self-cleavage was 0.09.

AAACAGGGGGCCACAGCAGAAGCGUUCACGUCGCGGCCCCGGUCAGAUUCUGGUGAAUCUGCGAAUUCUGCUGUAAAUCUC [U1A A35G U41G U76A]: the self-cleavage was found to be 0.24.

With AAACAGGGGGGCACAGCAGAAGCGUACACGUCGCAGCCCUCGUCAGGUUCUGGUGAAUCUGCGAAUUCCGCUGUAUAUCUC [U1A C11G U26A C40U U41C A47G U69C], the self-cleavage turned out to be 0.13.

On to AAACAGGGGGCCACAGCAGAAGCGUUCGCGUCGCAGCCCCUGUCAGAUUCUGGUGAAUCUGCGAAUUCCGCUGUAUAUCUC [U1A A28G U69C], for which the self-cleavage turned out to be 0.23.

As to AAAGAGGGGGCCACAGCAGAAGCGUUCACGUCGCAGCCCCUGUCAGAUUCUGGUGAAUCUGCGAAUUCUGCUGUGUAUCUC [U1A C4G A75G], the self-cleavage was 1.14.

For AAACAGGGGGCCACAGCAGAAGCGUUCACGUCGCUGCCCCAGUCAGAUUCUGGUGGGUCUGCGUAUUCUGCUGUAUAUCUC [U1A A35U U41A A56G A57G A64U], the self-cleavage was 0.07.
